# According to PubChem BioAssay AID504333 (National Center for Advancing Translational Sciences (NCATS), 2011):
# Hit rate of the full screen: of about 360,000 compounds, about 16,000 (4.4%) were called active. Inconclusive results, whose numbers are uncertain, are shown with a selection of clear calls. Calls follow the shape of the dose curve; as a rule, active = well fitted inhibition curve with a large enough effect; inconclusive = small, poorly fitted or top-dose-only effect; inactive = no such curve, though single readings can be large or run the other way. Potencies beside an inconclusive call are fits to weak or partial responses and may not hold up. Some compounds were tested as several samples or in several runs, with calls that do not always agree.
# Target: Bromodomain adjacent to zinc finger domain protein 2B (Homo sapiens) (UniProt Q9UIF8)
# Assay: qHTS Assay for Inhibitors of BAZ2B; also: nearly all actives have a fitted effect of over 60% in size
# Settings: AlphaScreen BAZ2B-H3K14Ac peptide displacement; activity change, negative = inhibition: at 114 µM (top of the series)
# Method in brief: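 BAZ2B (50 nM) with biotin-H3(5-23)K14Ac peptide (50 nM) in PBS pH 7.4, 0.01% Tween-20, preformed 30 min, then compound 30 min at room temperature; top concentration 110uM. AlphaScreen streptavidin donor/nickel chelate acceptor beads (10 ug/mL final), 20 min dark, signal read.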
# % is scaled to controls: 0 for no effect and ±100 for the full control effect; potency is read from the fitted curve at half-maximal effect; tags tell the direction and shape of the fitted curve.
# Chain of UniProt Q9UIF8 (Q9UIF8 whole entry, looked up, the tested form may be a part): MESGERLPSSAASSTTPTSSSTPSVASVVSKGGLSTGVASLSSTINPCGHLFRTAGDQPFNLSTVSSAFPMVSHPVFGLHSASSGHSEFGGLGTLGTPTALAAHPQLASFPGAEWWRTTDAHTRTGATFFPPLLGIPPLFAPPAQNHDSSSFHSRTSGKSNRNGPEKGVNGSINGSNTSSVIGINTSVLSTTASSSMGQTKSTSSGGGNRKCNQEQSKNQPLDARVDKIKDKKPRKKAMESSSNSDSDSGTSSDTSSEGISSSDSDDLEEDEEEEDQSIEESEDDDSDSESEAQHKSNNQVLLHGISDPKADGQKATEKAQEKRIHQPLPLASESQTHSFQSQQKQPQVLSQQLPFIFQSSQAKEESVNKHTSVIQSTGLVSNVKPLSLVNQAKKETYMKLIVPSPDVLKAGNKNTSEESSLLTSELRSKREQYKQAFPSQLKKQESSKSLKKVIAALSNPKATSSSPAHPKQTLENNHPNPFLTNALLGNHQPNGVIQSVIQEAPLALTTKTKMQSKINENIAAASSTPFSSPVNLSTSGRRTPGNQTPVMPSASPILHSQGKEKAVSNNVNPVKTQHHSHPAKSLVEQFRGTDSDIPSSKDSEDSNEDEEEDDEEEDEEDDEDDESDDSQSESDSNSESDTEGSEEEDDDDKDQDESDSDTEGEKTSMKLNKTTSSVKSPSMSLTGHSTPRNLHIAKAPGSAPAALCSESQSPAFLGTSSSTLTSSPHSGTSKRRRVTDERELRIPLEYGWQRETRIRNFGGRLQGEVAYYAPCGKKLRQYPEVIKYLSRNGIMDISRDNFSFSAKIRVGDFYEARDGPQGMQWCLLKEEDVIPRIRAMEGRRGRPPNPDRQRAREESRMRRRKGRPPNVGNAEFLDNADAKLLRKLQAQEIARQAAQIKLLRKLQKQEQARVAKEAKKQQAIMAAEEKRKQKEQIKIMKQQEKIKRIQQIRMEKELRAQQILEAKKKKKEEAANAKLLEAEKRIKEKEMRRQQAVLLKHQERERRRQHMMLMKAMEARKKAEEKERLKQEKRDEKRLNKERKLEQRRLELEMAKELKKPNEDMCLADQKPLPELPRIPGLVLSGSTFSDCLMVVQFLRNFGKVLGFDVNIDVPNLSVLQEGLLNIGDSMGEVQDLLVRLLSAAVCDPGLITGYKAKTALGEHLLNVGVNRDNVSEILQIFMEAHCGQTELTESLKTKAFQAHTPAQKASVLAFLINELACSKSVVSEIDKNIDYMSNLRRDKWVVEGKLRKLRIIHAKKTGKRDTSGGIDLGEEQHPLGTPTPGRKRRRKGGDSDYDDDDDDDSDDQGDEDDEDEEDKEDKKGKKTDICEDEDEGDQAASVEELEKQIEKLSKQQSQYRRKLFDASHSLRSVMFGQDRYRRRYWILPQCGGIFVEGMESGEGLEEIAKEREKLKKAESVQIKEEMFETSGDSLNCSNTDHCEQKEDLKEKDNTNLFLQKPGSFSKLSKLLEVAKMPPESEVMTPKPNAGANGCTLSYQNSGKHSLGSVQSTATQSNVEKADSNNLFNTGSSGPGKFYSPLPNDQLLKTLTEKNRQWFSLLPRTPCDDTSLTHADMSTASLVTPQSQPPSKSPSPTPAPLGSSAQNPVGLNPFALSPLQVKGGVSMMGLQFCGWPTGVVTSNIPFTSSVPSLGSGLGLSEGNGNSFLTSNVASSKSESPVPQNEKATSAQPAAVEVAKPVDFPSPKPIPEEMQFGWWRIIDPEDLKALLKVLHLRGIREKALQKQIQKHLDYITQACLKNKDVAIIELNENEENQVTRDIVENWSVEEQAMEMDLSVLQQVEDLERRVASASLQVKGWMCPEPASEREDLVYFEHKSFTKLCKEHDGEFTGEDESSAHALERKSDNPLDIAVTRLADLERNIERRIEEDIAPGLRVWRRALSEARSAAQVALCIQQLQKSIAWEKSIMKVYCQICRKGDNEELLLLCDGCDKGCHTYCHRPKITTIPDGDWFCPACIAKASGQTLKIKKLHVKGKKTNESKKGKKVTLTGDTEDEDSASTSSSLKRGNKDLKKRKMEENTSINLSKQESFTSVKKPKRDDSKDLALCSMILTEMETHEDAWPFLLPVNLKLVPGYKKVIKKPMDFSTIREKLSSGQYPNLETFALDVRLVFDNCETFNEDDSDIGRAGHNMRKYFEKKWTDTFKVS
Structure (SMILES),Potency,"activity change, negative = inhibition"
COc1ccccc1-n1cc(-c2ccc(Cl)cc2)[nH]c1=O,"inconclusive: 50.1 µM [inhibitor, partial curve]",
O=C(O)Cc1ccc(C(=O)c2ccc(Cl)cc2)s1,inactive,
CC1=C([N+](=O)[O-])C(c2ccccc2)C2=C(N1)c1ccccc1C2=O (stereo unspecified),active: 35.5 µM,
Cc1ccccc1C(=O)Nc1nnc(S(=O)(=O)N2CCCCCC2)s1,active: 22.4 µM,
Cc1ccc(CN=C(Nc2ccccc2)NC2CCCCC2)cc1,inactive,
Cc1ccc(Cl)cc1N1CCN(C(=O)C2CCN(Cc3nc(-c4cccc(Cl)c4)oc3C)CC2)CC1,"inconclusive: 25.1 µM [inhibitor, full curve]",
COc1ccc(N2CCN(C(=O)[C@H](Cc3c[nH]c4ccccc34)NC(C)=O)CC2)cc1,"inconclusive: 79.4 µM [inhibitor, single point]",
COC(=O)COc1ccc(S(=O)(=O)N2CCc3ccccc3C2)cc1C,"inconclusive: 7.94 µM [inhibitor, full curve]",
Cc1ccc(NC(=O)CCCc2ccccc2)c([N+](=O)[O-])c1,"inconclusive: 44.7 µM [inhibitor, partial curve]",
O=C(CSCc1ccc(Cl)cc1Cl)Nc1ccccc1C(=O)Nc1ccc(C(=O)O)cc1,"inconclusive: 89.1 µM [inhibitor, single point]",
CC1(C(=O)Nc2nc3ccccc3s2)CC1(Br)Br (stereo unspecified),inactive,
Cc1c(-c2ccc(/C=N/NC(=O)C(=O)Nc3ccccc3F)o2)cccc1[N+](=O)[O-],inactive,
Cc1nc(-c2ccc(C(=O)O)cc2)cs1,"inconclusive: 89.1 µM [inhibitor, single point]",
CC1(C#CC[N+]2(C)CCCCC2)CCC2C(O1)c1ccccc1OC2(C)C (stereo unspecified),active: 56.2 µM,
COc1cccc(NC(=O)c2cccnn2)c1,inactive,
O=c1c2c(-c3ccc([N+](=O)[O-])cc3)csc2nc2n1CCCCC2,"inconclusive: 50.1 µM [inhibitor, partial curve]",
CC1=C(C(=O)OC2CCCC2)C(c2ccccc2Cl)CC(=O)N1 (stereo unspecified),inactive,
COc1cc(CN2CCC(C)CC2)ccc1OCc1ccccc1,,inconclusive: -68.1% [inhibitor]
COc1ccc(/C(C)=N/Nc2ccccc2Cl)c(O)c1,"inconclusive: 56.2 µM [inhibitor, partial curve]",
Cc1ccc(OCC(=O)Nc2ccccc2N2CCCC2)c(C)c1,active: 70.8 µM,
O=C(CCN1C(=O)/C(=C/C=C/c2ccccc2)SC1=S)Nc1nc2ccccc2s1,"inconclusive: 3.55 µM [inhibitor, full curve, poor fit]",
O=C1C=C(/C=C/c2ccccc2)C[C@@H](c2ccc3c(c2)OCO3)C1,"inconclusive: 79.4 µM [inhibitor, single point]",
Cc1ccc(C(c2sc3nc(-c4ccco4)nn3c2O)N2CCN(Cc3ccccc3)CC2)cc1 (stereo unspecified),"inconclusive: 44.7 µM [inhibitor, partial curve]",
COc1ccc(CN(C)C(=O)c2cccc(NS(=O)(=O)c3ccccc3)c2)c(OC)c1,inactive,

Structure (SMILES),Potency,"activity change, negative = inhibition"
COc1ccc(/C=C/C(=O)NCCn2c(C)cc3ccccc32)cc1OC,"inconclusive: 70.8 µM [inhibitor, single point]",
CCCc1cc2c(-c3ccccc3)cc(=O)oc2cc1OCc1ccc(C(=O)O)o1,"inconclusive: 50.1 µM [inhibitor, partial curve]",
Cc1cccc(N2CCN(C3(c4ccccc4)C(=O)c4ccccc4C3=O)CC2C)c1 (stereo unspecified),active: 8.91 µM,
Cc1[nH]c2ccccc2c1C(c1ccncc1)N1CCN(c2ccc(F)cc2)CC1 (stereo unspecified),"inconclusive: 39.8 µM [inhibitor, full curve]",
Cc1ccc(C)c(NC(=S)N/N=C2/CCCCc3ccccc32)c1,"inconclusive: 28.2 µM [inhibitor, full curve]",
Cc1coc2cc3oc(=O)c(CC(=O)N4C[C@H]5C[C@@H](C4)c4cccc(=O)n4C5)c(C)c3cc12,"inconclusive: 89.1 µM [inhibitor, single point]",
COc1cc(C2Nc3cccc4cccc(c34)N2)cc(OC)c1OC(C)=O,"inconclusive: 79.4 µM [inhibitor, single point]",
Cc1cccc(NC(=O)CCn2nc(-c3ccccc3)c3ccccc3c2=O)c1,inactive,
N#Cc1cccc(NC(=O)C2CCN(c3ncccn3)CC2)c1,inactive,
Cc1ccc(-c2nc3cc(Br)cnc3nc2-c2ccc(C)cc2)cc1,"inconclusive: 12.6 µM [inhibitor, full curve]",
CCC1=NN2C(=N)/C(=C\c3ccc(OCc4cc(=O)n5nc(CC)sc5n4)c(OC)c3)C(=O)N=C2S1,active: 79.4 µM,
N#CC1=C(N)N(c2ccc(F)cc2)C2=C(C1c1ccc(O)cc1)S(=O)(=O)CC2 (stereo unspecified),active: 35.5 µM,
O=C(CCCc1ccccc1)Nc1ccnn1C1CCN(Cc2ccc(Cl)cc2)CC1,inactive,
O=C(O)c1ccc(NS(=O)(=O)c2ccc3nnn(O)c3c2)cc1,"inconclusive: 89.1 µM [inhibitor, single point]",
COc1cccc(N2CCN(C(=S)NCc3ccco3)CC2)c1,"inconclusive: 89.1 µM [inhibitor, single point]",
Cc1cccc(C(=O)NCCCN2CCCC2=O)c1,"inconclusive: 89.1 µM [inhibitor, single point]",
O=[N+]([O-])c1cc(S(=O)(=O)C(F)(F)F)ccc1Sc1nc2ccccc2s1,active: 7.94 µM,
COc1ccc(CCNC(=O)c2ccc3c(c2)N(Cc2ccc(Cl)cc2)CCS3)c(OC)c1,inactive,
CN1CCCCCC1=Nc1ccccc1C#N,active: 44.7 µM,
C#CCOCCOCCOCCNc1nc(N2CCN(C(=O)[C@H]([C@@H](C)CC)n3cc([C@@H](N)CO)nn3)CC2)nc(N2CCN(C(=O)[C@H](Cc3ccc(O)cc3)n3cc([C@@H](N)C(C)CC)nn3)CC2)n1 (stereo partly specified),active: 35.5 µM,
O=C(COc1ccc(C(=S)N2CCOCC2)cc1Cl)Nc1ccccc1Cl,inactive,
Clc1nc(Nc2ccc(N3CCOCC3)cc2)c2ccccc2n1,"inconclusive: 56.2 µM [inhibitor, partial curve]",
CCOC(=O)c1cc(-c2ccc(C)cc2)n(CCC(=O)Nc2ccc(OC)c(OC)c2)c1C,"inconclusive: 25.1 µM [inhibitor, full curve]",
O=C(O)CSc1cc(C(=O)c2ccccc2O)cn2c(=O)c3c4c(sc3nc12)CCCC4,active: 22.4 µM,

Structure (SMILES),Potency,"activity change, negative = inhibition"
Cc1c(CC(=O)O)c(=O)oc2c(C)c3occ(-c4ccccc4)c3cc12,inactive,
COCC(=O)Oc1c(Sc2ccccc2[N+](=O)[O-])c(C)nn1C(C)(C)C,"inconclusive: 79.4 µM [inhibitor, single point]",
COc1ccc2nc(NC(=S)N(C)C)sc2c1,"inconclusive: 22.4 µM [inhibitor, full curve]",
Cc1n[nH]c(C)c1Sc1ccccc1[N+](=O)[O-],"inconclusive: 56.2 µM [inhibitor, partial curve]",
COc1ccc(CNC(=O)c2cc(-c3ccco3)on2)cc1,"inconclusive: 89.1 µM [inhibitor, single point]",
Cc1nc(Nc2ccc3c(c2)OCO3)c2oc3ccccc3c2n1,"inconclusive: 79.4 µM [inhibitor, single point]",
COc1ccc(C(=O)/C=C/c2ccc(N3CCCCC3)c([N+](=O)[O-])c2)c(OC)c1,active: 8.91 µM,
O=C1C=C(Nc2ccccc2)C(=O)c2ccccc21,active: 7.94 µM,
COc1ccc([N+](=O)[O-])cc1N(CC(=O)NC(C(C)C)C(C)C)S(C)(=O)=O,inactive,
Cc1cccc(N2CCCn3c2nc2c3c(=O)n(CCN3CCOCC3)c(=O)n2C)c1,inactive,
Cc1cc(O)c(C(C)C)cc1C1(c2cc(C(C)C)c(O)cc2C)OC(=O)c2ccccc21,"inconclusive: 89.1 µM [inhibitor, single point]",
COc1ccc(N2CCN(CC(=O)Nc3cccc(S(=O)(=O)N4CCOCC4)c3)CC2)cc1,active: 35.5 µM,
CCOc1ccc(CNS(=O)(=O)c2cc(-c3cc(C)no3)ccc2C)cc1OC,inactive,
O=C(Oc1ccc(Cl)c2cccnc12)N1CCCCCC1,inactive,
COc1ccc(-c2cnc(C)o2)cc1S(=O)(=O)Nc1ccc(C)c(N(C)C)c1,active: 50.1 µM,
CC(C)CNS(=O)(=O)c1ccc(CCC(=O)NCCC2=CCCCC2)cc1,inactive,
Cn1c(N2CCN(C(c3ccccc3)c3ccccc3)CC2)nc2ccccc21,"inconclusive: 20 µM [inhibitor, partial curve, poor fit]",
O=[N+]([O-])c1ccc(C2Nc3cccc4cccc(c34)N2)cc1,active: 44.7 µM,
Cn1ccc2cc(-c3ccc4ncnc(NCc5cccnc5)c4c3)ccc21,"inconclusive: 44.7 µM [inhibitor, partial curve]",
CC(C)N(C(=O)COC(=O)c1ccccc1C(=O)c1ccc(Cl)c([N+](=O)[O-])c1)C(C)C,"inconclusive: 31.6 µM [inhibitor, partial curve]",
CC(C)N1CCc2c(sc(NC(=O)CCc3ccccc3)c2C(N)=O)C1,"inconclusive: 89.1 µM [inhibitor, single point]",
CCCn1c(N)c(N(CCOC)C(=O)c2cc(-c3ccco3)nc3ccccc23)c(=O)[nH]c1=O,"inconclusive: 56.2 µM [inhibitor, partial curve]",
CC(=O)N1C(=O)NC(c2ccccc2)=C([N+](=O)[O-])C1c1ccccc1 (stereo unspecified),"inconclusive: 100 µM [inhibitor, single point]",
